Results reported in the supplement of paper PMC7826260.
This is one part of the list. Each Rep nickase domain was tested in vitro on the same pool of single strands (3 µM enzyme, 1 h, 37 °C); shown is the middle of each 90-letter strand. A value is the log2 ratio of uncut reads to the pool without enzyme; strong cutting gives strongly negative numbers. There is no active / inactive call. Because reads are shares of a total, they shift together; where an enzyme cuts many sequences, the uncut ones exceed 0.

Assays:
Experiment in all cases: uncleaved DNA left, log2 of reads against the no-enzyme library (log2 ratio); higher = less cleavage (more negative = more Rep cleavage of the k-mer); sequences stand for … in CTCGTCCG…ACCGGAGA
[1] = system: T1, Rep nickase domain of Muscovy duck circovirus
T1 sequence (Rep 1-111, printed without the tag): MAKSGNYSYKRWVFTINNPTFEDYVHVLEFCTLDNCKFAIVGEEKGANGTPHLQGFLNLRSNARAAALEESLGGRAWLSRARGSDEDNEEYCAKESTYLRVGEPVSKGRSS
Protocol: (§1)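 A pool of 90-nt single-stranded DNAs with seven random bases just before the constant AC of the nick site (name = the seven bases) was cut by 3 µM recombinant His6-SUMO-tagged Rep nickase domain (300 nM DNA, 50 mM HEPES pH 8.0, 50 mM NaCl, 1 mM MnCl2, 1 h, 37 °C, three replicates). Uncut DNA was amplified and sequenced.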

[2] = system: T2, Rep nickase domain of banana bunchy top virus
T2 sequence (Rep 1-94, printed without the tag): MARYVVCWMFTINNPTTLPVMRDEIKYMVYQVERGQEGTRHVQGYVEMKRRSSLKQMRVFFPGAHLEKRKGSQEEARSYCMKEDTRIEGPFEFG
Protocol: as §1

[3] = system: T3, Rep nickase domain of cabbage leaf curl virus
T3 sequence (Rep 1-116, printed without the tag): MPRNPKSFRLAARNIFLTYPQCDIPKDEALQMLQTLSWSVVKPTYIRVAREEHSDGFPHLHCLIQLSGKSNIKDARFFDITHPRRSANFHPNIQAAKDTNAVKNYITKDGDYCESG
Protocol: as §1

[4] = system: T4, Rep nickase domain of chickpea chlorotic dwarf virus
T4 sequence (Rep 1-124, printed without the tag): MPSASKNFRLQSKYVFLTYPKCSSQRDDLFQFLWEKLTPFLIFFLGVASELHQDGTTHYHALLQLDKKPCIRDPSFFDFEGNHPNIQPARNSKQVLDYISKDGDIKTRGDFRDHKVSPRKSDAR
Protocol: as §1

[5] = system: T5, Rep nickase domain of faba bean necrotic yellows virus
T5 sequence (Rep 1-98, printed without the tag): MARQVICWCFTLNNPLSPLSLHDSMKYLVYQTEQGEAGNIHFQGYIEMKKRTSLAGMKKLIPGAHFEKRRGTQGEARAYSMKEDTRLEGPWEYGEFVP
Protocol: as §1

[6] = system: T6, Rep nickase domain of maize striate mosaic virus
T6 sequence (Rep 1-117, printed without the tag): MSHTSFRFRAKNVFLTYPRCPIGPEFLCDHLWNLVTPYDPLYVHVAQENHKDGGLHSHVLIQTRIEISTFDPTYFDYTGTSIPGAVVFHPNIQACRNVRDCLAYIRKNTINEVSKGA
Protocol: as §1

[7] = system: T7, Rep nickase domain of porcine circovirus 2
T7 sequence (Rep 2-116, printed without the tag): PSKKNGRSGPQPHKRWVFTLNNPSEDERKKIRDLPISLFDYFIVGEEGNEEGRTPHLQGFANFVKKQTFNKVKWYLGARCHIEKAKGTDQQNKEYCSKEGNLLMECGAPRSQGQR
Protocol: as §1

[8] = system: T8, Rep nickase domain of tomato golden mosaic virus
T8 sequence (Rep 1-124, printed without the tag): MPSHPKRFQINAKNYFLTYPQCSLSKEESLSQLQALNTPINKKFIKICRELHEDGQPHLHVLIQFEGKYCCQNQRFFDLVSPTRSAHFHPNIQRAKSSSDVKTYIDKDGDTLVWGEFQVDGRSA
Protocol: as §1

[9] = system: T9, Rep nickase domain of tomato yellow leaf curl virus
T9 sequence (Rep 1-136, printed without the tag): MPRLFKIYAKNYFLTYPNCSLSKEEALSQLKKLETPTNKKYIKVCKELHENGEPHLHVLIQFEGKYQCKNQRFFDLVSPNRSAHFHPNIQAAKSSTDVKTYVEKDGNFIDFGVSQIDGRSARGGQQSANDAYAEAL
Protocol: as §1

[10] = system: T10, Rep nickase domain of wheat dwarf virus
T10 sequence (Rep 1-137, printed without the tag): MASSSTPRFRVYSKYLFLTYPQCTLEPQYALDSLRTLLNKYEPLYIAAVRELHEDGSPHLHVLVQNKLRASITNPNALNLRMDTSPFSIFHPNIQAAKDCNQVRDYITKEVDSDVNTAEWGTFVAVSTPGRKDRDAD
Protocol: as §1

Row | Sequence | uncleaved DNA left (log2) [1] | uncleaved DNA left (log2) [2] | uncleaved DNA left (log2) [3] | uncleaved DNA left (log2) [4] | uncleaved DNA left (log2) [5] | uncleaved DNA left (log2) [6] | uncleaved DNA left (log2) [7] | uncleaved DNA left (log2) [8] | uncleaved DNA left (log2) [9] | uncleaved DNA left (log2) [10]
1 | CACTGCT | -1.52 | -1.79 | -0.865 | -1.65 | -0.0987 | -1.22 | -3.61 | -0.227 | -0.0138 | -0.207
2 | AGTGTAA | 0.014 | -0.0372 | 0.0287 | 0.409 | -0.138 | 0.941 | -0.307 | 0.031 | -0.0368 | -0.0316
3 | CATAATC | 0.0572 | 0.0897 | -0.00383 | -0.101 | -0.0292 | -0.757 | 0.0822 | 0.0266 | 0.183 | 0.178
4 | GAATGAA | 0.0262 | -0.0224 | 0.184 | 0.312 | 0.024 | 0.49 | -0.507 | 0.0597 | -0.0291 | 0.0817
5 | CGCAACA | 0.0227 | 0.0918 | -0.106 | -1.57 | 0.0414 | -0.328 | 0.0253 | 0.0578 | 0.0474 | -0.034
6 | AAGTAGA | 0.0281 | 0.0533 | -0.117 | -0.198 | 0.0987 | -0.384 | -2.15 | 0.167 | 0.0471 | 0.0108
7 | CTCGGAG | -0.101 | -0.0329 | -0.672 | -0.483 | -0.0426 | -0.858 | 0.163 | -0.147 | 0.144 | -0.107
8 | GATGTGC | 0.11 | 0.0478 | -0.156 | -0.186 | 0.147 | -0.793 | 0.106 | 0.0122 | 0.127 | 0.0448
9 | GCCGGGT | 0.0998 | 0.102 | 0.536 | 0.727 | 0.118 | 1.57 | 0.202 | 0.121 | 0.0524 | 0.182
10 | CCCGCGT | -0.24 | -0.114 | -0.755 | -0.548 | 0.0156 | -0.715 | 0.265 | 0.0107 | 0.00798 | -0.15
11 | CGGTCGG | 0.0602 | 0.216 | 0.353 | 0.968 | 0.00544 | 1.21 | 0.241 | 0.161 | 0.109 | 0.0401
12 | GGACCGC | 0.0995 | 0.124 | 0.684 | 1.45 | -0.0417 | 1.79 | 0.26 | -0.0682 | 0.147 | 0.107
13 | GCCCGCG | 0.0507 | -0.023 | -0.492 | 0.817 | 0.0572 | -0.0187 | 0.0832 | -0.141 | -0.15 | -0.153
14 | TACTGAG | -0.00588 | 0.0598 | -0.714 | -0.549 | -0.0391 | -1.06 | 0.216 | -0.0349 | 0.0462 | -0.0927
15 | ATGTTAG | 0.0192 | -0.0617 | -0.788 | -0.408 | 0.014 | -1.06 | 0.0534 | 0.0295 | -0.0562 | -0.0855
16 | AGCTTTT | -1.64 | -0.149 | -0.154 | -1.64 | -0.0489 | 0.00204 | -3.48 | -0.0731 | 0.0585 | -0.159
17 | CGTCTGT | -0.045 | 0.0345 | -0.00851 | 0.469 | -0.0626 | 1.3 | 0.0368 | -0.0862 | -0.128 | 0.0343
18 | CATACTT | -0.383 | -3.19 | -0.617 | -3.11 | 0.0148 | -0.583 | -3.18 | -0.0574 | -0.0284 | -0.0669
19 | ATCGCAC | 0.00966 | -0.0375 | -0.239 | -0.303 | 0.0651 | -0.82 | 0.0123 | 0.0019 | -0.0164 | -0.044
20 | CCGGGCG | -0.0904 | -0.154 | -0.733 | -0.0789 | -0.129 | -0.488 | 0.079 | -0.0703 | -0.033 | -0.134
21 | TTCCGGG | 0.105 | 0.0713 | 0.745 | 0.857 | 0.159 | 1.81 | 0.251 | 0.0813 | 0.0554 | 0.158
22 | CTGCTAA | -0.0039 | -0.0279 | -0.318 | -0.504 | -0.0905 | -0.905 | -0.0324 | -0.0284 | -0.0734 | -0.0655
23 | TGTCTAA | -0.0819 | -0.103 | 0.157 | 0.198 | -0.0755 | 0.485 | 0.0395 | -0.00689 | 0.0869 | 0.0329
24 | TAGCCGA | -0.00594 | -0.132 | -0.592 | -0.821 | -0.0269 | -1.04 | -0.0605 | -0.0688 | 0.0308 | -0.0574
25 | GGCGTCC | 0.00376 | -0.0252 | 0.257 | 0.734 | -0.0924 | 1.06 | -0.0758 | -0.0855 | -0.0606 | -0.0295
26 | TAATCAA | 0.0946 | 0.199 | -2.2 | -1.91 | 0.0281 | -0.0567 | -0.0232 | -0.447 | 0.232 | -0.935
27 | TTCGCAT | -0.0384 | -0.0351 | -0.135 | -0.576 | -0.0112 | -0.791 | -0.0886 | -0.216 | 0.0457 | -0.124
28 | TTTAGTC | -0.0143 | 0.0539 | 0.154 | -0.0662 | -0.0288 | -0.701 | 0.00392 | -0.0584 | -0.0226 | 0.0264
29 | ATTCGTC | -0.0925 | -0.107 | -0.348 | -0.498 | -0.0269 | -1.14 | 0.0654 | -0.131 | -0.0189 | -0.128
30 | TTCGCAA | 0.0429 | 0.0725 | 0.0585 | -0.258 | -0.0833 | -0.68 | -0.000626 | -0.0568 | 0.051 | -0.039
